PubChem BioAssay AID1347165 (National Center for Advancing Translational Sciences (NCATS), 2019)
In all, about 220,000 compounds went through this assay and about 5,700 (2.6%) were called active. The inconclusive results got no clear call from the source; some entries with a clear call stand among them for comparison. Calls follow the shape of the dose curve; as a rule, active = well fitted inhibition curve with a large enough effect; inconclusive = small, poorly fitted or top-dose-only effect; inactive = no such curve, though single readings can be large or run the other way. A potency beside an inconclusive call is a rough fit, not a confirmed value.

Target: Lysine-specific demethylase 5B (Homo sapiens) (UniProt Q9UGL1)
Test: Primary screen for KDM5B Histone Demethylases FDH-coupled qHTS; also: nearly all actives have a fitted effect of over 70% in size; as to activity change, negative = inhibition: 0% is about no effect
Settings: FDH-coupled NADH fluorescence (FDH is formaldehyde dehydrogenase); activity change, negative = inhibition: at 57.7 µM (top of the series) unless noted
Procedure, shortened: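 Compound dilutions met 200 nM (final) KDM5BΔAP for 10 min at room temperature before substrate addition. The substrate mix held 12.5 µM H3K4me3 with cofactors 25 µM α-ketoglutarate and 50 µM Fe²⁺. NADH signal gain over 30 min defined activity.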
Potency is read from the fitted curve at half-maximal effect; tags tell the direction and shape of the fitted curve.

Sequence of UniProt Q9UGL1 (Q9UGL1 whole entry, looked up): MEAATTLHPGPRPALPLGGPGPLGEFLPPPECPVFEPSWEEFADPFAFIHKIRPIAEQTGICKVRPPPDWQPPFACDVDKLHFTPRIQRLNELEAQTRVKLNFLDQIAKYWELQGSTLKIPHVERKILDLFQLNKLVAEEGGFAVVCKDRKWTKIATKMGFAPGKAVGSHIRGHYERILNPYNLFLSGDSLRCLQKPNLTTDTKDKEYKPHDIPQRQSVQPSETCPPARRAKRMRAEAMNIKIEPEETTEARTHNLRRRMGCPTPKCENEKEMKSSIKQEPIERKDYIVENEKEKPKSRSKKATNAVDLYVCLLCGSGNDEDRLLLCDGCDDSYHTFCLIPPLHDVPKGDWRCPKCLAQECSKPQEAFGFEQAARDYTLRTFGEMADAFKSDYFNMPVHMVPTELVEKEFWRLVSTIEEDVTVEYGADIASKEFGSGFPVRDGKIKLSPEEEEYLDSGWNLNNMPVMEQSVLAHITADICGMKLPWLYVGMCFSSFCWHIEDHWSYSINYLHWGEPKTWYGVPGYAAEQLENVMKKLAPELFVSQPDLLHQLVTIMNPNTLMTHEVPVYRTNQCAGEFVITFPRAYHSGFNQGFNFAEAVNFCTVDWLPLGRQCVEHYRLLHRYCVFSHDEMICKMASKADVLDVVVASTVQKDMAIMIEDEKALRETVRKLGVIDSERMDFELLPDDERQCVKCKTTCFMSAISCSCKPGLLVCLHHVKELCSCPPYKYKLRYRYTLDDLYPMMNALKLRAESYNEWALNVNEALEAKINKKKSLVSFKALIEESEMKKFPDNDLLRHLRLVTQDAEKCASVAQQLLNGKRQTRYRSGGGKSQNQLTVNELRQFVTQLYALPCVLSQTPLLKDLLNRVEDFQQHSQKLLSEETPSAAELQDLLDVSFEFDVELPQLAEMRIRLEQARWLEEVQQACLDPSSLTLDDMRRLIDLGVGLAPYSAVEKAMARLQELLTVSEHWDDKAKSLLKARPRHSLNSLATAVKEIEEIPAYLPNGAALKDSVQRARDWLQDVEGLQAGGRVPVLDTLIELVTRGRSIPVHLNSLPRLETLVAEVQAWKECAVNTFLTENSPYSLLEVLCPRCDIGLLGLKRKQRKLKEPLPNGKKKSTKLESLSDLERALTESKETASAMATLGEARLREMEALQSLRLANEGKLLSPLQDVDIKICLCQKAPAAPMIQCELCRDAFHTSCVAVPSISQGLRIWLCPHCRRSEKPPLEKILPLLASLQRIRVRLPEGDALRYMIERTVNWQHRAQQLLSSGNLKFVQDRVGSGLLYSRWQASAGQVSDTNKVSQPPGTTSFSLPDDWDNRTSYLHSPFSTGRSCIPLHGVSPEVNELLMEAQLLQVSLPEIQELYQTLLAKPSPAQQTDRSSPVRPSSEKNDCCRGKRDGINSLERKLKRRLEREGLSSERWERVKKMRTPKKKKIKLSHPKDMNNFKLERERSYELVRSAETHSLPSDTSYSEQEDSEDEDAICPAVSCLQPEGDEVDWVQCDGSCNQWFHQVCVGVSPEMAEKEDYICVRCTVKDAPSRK

Compound	activity change, negative = inhibition	Potency
Cc1ccc2c(c1)N1C(=O)OC[C@@H]1CCN(C(=O)CCC(=O)O)C2	inactive: 9.76% [at 86.2 µM]	–
OCCNc1nc(-c2ccccc2)c2cc(Br)ccc2n1	–	inconclusive: 28.2 µM [inhibitor, single point]
O=C(Nc1ccc2oc(-c3ccccc3Br)nc2c1)c1ccco1	–	inconclusive: 35.5 µM [inhibitor, single point]
O=C(Cc1ccccc1F)NC1CCN(C2CC2)C1 (stereo not drawn)	inactive: -3.14%	–
CCC1CN(C(=O)C2CCN(S(=O)(=O)c3c(C)noc3/C=C/c3ccccc3F)CC2)c2cc(C)ccc2O1 (stereo not drawn)	–	inconclusive: 2.24 µM [inhibitor, full curve, poor fit]
CC(NCc1ccc(C(C)(C)C)cc1)c1ccc(S(C)(=O)=O)cc1 (stereo not drawn)	–	inconclusive: 22.4 µM [inhibitor, partial curve, poor fit]
Oc1ccc(-c2nc(C3CC3)nc3c2CCN(Cc2cccnc2)CC3)cc1	inactive: 3.75%	–
Cc1ccc(CSc2nc3cccnc3n2Cc2ccc(C(=O)NCCc3cccs3)cc2)cc1	–	inconclusive: 35.5 µM [inhibitor, partial curve, poor fit]
Cc1nn(C)c2c1c(C(F)(F)F)cc(=O)n2CC(=O)N1CCC(C)CC1	–	inconclusive: 15.8 µM [inhibitor, partial curve, poor fit]
CCOc1ccc(C2C3=C(CCCC3=O)Nc3nc(-c4ccc(Cl)cc4)nn32)cc1 (stereo not drawn)	inactive: 2.34%	–
Cn1c(SCc2cc(=O)n3[nH]cc(C#N)c3n2)nnc1-c1ccc(Cl)cc1	–	inconclusive: 12.6 µM [inhibitor, partial curve, poor fit]
CC1CCN(C(=O)C(=O)N2CCN(c3nc(-c4ccco4)c4c(c3C#N)CCC4)CC2)CC1	–	inconclusive: 20 µM [inhibitor, partial curve, poor fit]
O=C1c2cc(N3CCOCC3)nc(-c3cccnc3)c2CN1c1ccccc1	–	active: 39.8 µM
COc1cccc(CCC(=O)N2CCCN(c3cc(-c4ccc(C)c(C)c4)[nH]n3)CC2)c1	–	inconclusive: 7.94 µM [inhibitor, partial curve, poor fit]
COc1ccc2nc(C[C@@H]3C[C@@H](C(C)C)[C@H](CNC(=O)CCC(=O)O)C=C3C)[nH]c2c1	–	inconclusive: 31.6 µM [inhibitor, partial curve]
Cc1ccc(C(=O)N2CCN(c3nc4ccccc4o3)CC2)cc1	inactive: 9.48%	–
O=C(c1cc(-c2ccccc2)on1)N1CCOCC1	inactive: 19.1%	–
CN(C)CCNC(=O)C(C)(C)Oc1nn(CC2CCOCC2)c2ccccc12	–	active: 31.6 µM
COc1ccccc1C(=O)N1CCCN(Cc2ccc3c(c2)OCO3)c2ccccc21	–	inconclusive: 12.6 µM [inhibitor, partial curve, poor fit]
Cn1nccc1OCc1cn2c(=O)n(C)cc(-c3cccc(C(F)(F)F)c3)c2n1	–	inconclusive: 31.6 µM [inhibitor, single point]
CCN1CCN(c2nc3c(s2)CN(C(=O)Cc2cccnc2)CC3)CC1	–	inconclusive: 28.2 µM [inhibitor, partial curve, poor fit]
Cn1cnnc1-c1nn(C)c2c1CNCC2	–	inconclusive: 12.6 µM [inhibitor, partial curve, poor fit]

Compound	activity change, negative = inhibition	Potency
COc1cccc(C(=O)N2CCC(NS(=O)(=O)c3cccs3)CC2)c1	inactive: -12.9%	–
COc1ccc(NC(=O)c2ccco2)cc1NC(=O)COc1ccccc1Cl	–	inconclusive: 28.2 µM [inhibitor, partial curve, poor fit]
CCn1cc(C(=O)N2C[C@@H](COCC3CC3)[C@H](c3ccccn3)C2)cn1	inactive: 17.8%	–
CCCn1ccc2c(OCC(=O)Nc3ccc(F)cc3F)cccc2c1=O	–	inconclusive: 35.5 µM [inhibitor, single point]
O=C(CSc1nc2ccc(Cl)cc2[nH]1)N1N=C(c2cccs2)CC1c1ccco1 (stereo not drawn)	–	inconclusive: 8.91 µM [inhibitor, partial curve, poor fit]
CCNC(=O)[C@@H]1C[C@@H](NC(=O)Cn2nccc2C)CN1Cc1ccccn1	–	inconclusive: 12.6 µM [inhibitor, partial curve]
Cc1ccc(-c2n[nH]c(=O)c3ccccc23)cc1S(=O)(=O)N1CCCC1	inactive: 20.3%	–
CCCn1cc(S(=O)(=O)c2ccccc2)c(=O)c2cc(F)c(N3CCCC3)cc21	–	inconclusive: 3.16 µM [inhibitor, full curve, poor fit]
CN1CC(=O)N(c2cccnc2)Cc2c1ncnc2N1CCN(c2ccccn2)CC1	–	inconclusive: 28.2 µM [inhibitor, single point]
CSc1ccc(/C=C/C(=O)c2ccc(NC(=O)c3ccccc3Cl)cc2)cc1	inactive: -19.3%	–
Cn1cc(CC(=O)N2CCCc3ncc(C(=O)Nc4cccc(Cl)c4)cc32)c2ccccc21	–	inconclusive: 20 µM [inhibitor, partial curve, poor fit]
O=C(NCCc1ccc(Cl)cc1)c1cccn1-c1nnc(N2CCCC2)s1	–	inconclusive: 35.5 µM [inhibitor, single point]
O=C(NCc1ccccn1)[C@H]1CN(Cc2ccccc2)C[C@H]1C(=O)O	inactive: -3.59%	–
O=C(Cn1ccn2nc3c(c2c1=O)CCCCC3)Nc1ccccc1F	–	inconclusive: 39.8 µM [inhibitor, single point]
CC(=O)Nc1ccc(N/C=C(\C#N)S(=O)(=O)c2ccc(Cl)cc2)cc1	–	inconclusive: 39.8 µM [inhibitor, partial curve, poor fit]
CC(Sc1ccc(C#N)cc1)C(=O)NC1CCCC1 (stereo not drawn)	inactive: 14.7%	–
Cc1ccc(-n2nc(C)c3nc(CCC(=O)Nc4ccc(F)cc4)c(=O)n(C)c32)cc1	inactive: 5.82%	–
Cc1cccc(CN2CCCC3(CCN(C(=O)Cc4cccnc4)C3)C2=O)c1 (stereo not drawn)	inactive: -7.02%	–
CC1(CNc2ccccc2)COc2ccc(C(=O)NCCc3cnc[nH]3)cc2N1 (stereo not drawn)	–	inconclusive: 31.6 µM [inhibitor, partial curve, poor fit]
CCOc1ccccc1CNC(=O)c1c(C)noc1-c1ccc2c(c1)OCO2	–	active: 28.2 µM
CC(C)Sc1ncc(Cl)c(C(=O)Nc2ccc(S(=O)(=O)N3CCCCC3C)cc2)n1 (stereo not drawn)	–	inconclusive: 15.8 µM [inhibitor, partial curve, poor fit]
